Measurements as given in PMC9574860, “Chemical Toolkit for PARK7: Potent, Selective, and High-Throughput” (Journal of Medicinal Chemistry, 2022).
Hit rate of the full screen: of about 7,900 compounds, about 400 (5.1%) showed an effect of 50% or more. The list shows a part of the results.

Target: Parkinson's disease protein 7 (PARK7/DJ1) (human, UniProt Q99497)
Test: primary screen, percent inhibition; read as competition with a fluorescent probe by fluorescence polarization; higher = more effect of the substance
Conditions: 100 µM
Outline: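 Fluorescence-polarization probe displacement (JYQ-107, 20 nM final, 2 h) after 2 h preincubation of PARK7 (0.2 μM final) with each fragment at 100 μM final. Read-out ex/em 480/520 nm; remaining activity derived from FP signal loss relative to reference controls.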

Sequence of Parkinson's disease protein 7 (PARK7/DJ1) (Q99497 whole entry, looked up): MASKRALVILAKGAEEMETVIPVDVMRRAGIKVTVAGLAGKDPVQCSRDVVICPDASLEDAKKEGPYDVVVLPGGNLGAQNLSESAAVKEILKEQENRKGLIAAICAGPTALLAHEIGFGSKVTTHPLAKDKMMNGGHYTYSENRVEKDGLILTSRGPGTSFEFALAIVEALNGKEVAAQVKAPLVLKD

| Compound | Inhibition % [%] |
| --- | --- |
| O=C(Cc1ccc(S(=O)(=O)F)cc1)NCc1ccccn1 | 5.8 |
| CC1(C)OB(Cc2cc(F)cc(F)c2)OC1(C)C | 6.97 |
| C=CC(=O)N1CCOC2(CCOC2C)C1 (centres unmarked) | 3.31 |
| Cl.O=C(CCl)N1CCN(Cc2ccccc2F)CC1 | 9.37 |
| CN1CCN(CCOc2ccc(B3OC(C)(C)C(C)(C)O3)cc2)CC1 | 4.31 |
| C=CC(=O)NC1COC(C2CC2)C1 (centres unmarked) | 4.28 |
| C=CC(=O)NC1CCCn2nc(C)nc21 (centres unmarked) | 10.1 |
| CCC1CCCCN1C(=O)C=Cc1cnn(C)c1 (centres unmarked) | 5.92 |
| C=CC(=O)NCc1cn2ccccc2n1 | 8.6 |
| O=C(CN1CCSC1=O)Nc1ccc(F)c(F)c1 | 0.431 |
| Cc1ccc(C(=O)Nc2ccc(-c3noc(=O)[nH]3)cc2)o1 | 6.77 |
| CN(CCn1cnc(C#N)n1)Cc1ccc(F)cc1 | 5.53 |
| O=C1CN=C(S)N1c1ccccc1C(F)(F)F | 8.07 |
| CC(=O)Nc1ccc(NC(=O)CCl)c(C(F)(F)F)c1 | 17.2 |
| CS(=O)(=O)OC1CCOCC1 | 8.67 |
| C=CC(=O)NC1(C)CC(F)(F)C1 | 10.7 |
| N#CC(=Cc1ccc(F)cc1)C(=O)O | 2.9 |
| O=C(CCl)NC(C1CC1)C1CC1 | 7.26 |
| CCOc1ccc(OCC2CO2)cc1 (centres unmarked) | 1.71 |
| O=C(CCl)N1CCN(C(=O)CCl)CC1 | 36.5 |
| C=CC(=O)N1CCCC(c2nccn2C)C1 (centres unmarked) | 11 |

| Compound | Inhibition % [%] |
| --- | --- |
| C=CC(=O)N1CCc2cc(C(=O)O)ccc2C1 | 12.6 |
| C=CC(=O)NC(c1nccn1C)C1CCOCC1 (centres unmarked) | 14.2 |
| CC(C)(C)c1cc(C#N)n[nH]1 | 3.68 |
| Cl.O=C(O)C1CCN(C(=O)C=Cc2cc3ccccc3o2)C1 (centres unmarked) | 0.775 |
| C=CC(=O)N1CC(=O)N(C)C1c1ccccc1 (centres unmarked) | 1.17 |
| CN1CCCC(C2OCCO2)C1 (centres unmarked) | 3.68 |
| C=CC(=O)NC1CC2(COC(C)C2)C1 (centres unmarked) | 8.04 |
| COC(=O)c1ccc(Cl)cc1S(=O)(=O)F | 96.1 |
| O=C(c1cccnc1S)N1CCOC2(CCCC2)C1 | 6.34 |
| COc1cc(Cl)ccc1S(=O)(=O)n1nc(C)cc1C | 9.02 |
| N#Cc1cn(Cc2ccccc2)nn1 | 3.36 |
| NC(=O)C1CCN(C(=O)C=Cc2ccc(Cl)s2)CC1 | 13.4 |
| O=c1ccccn1Cc1ccc(B(O)O)cc1 | 11.4 |
| Cc1c(CNC2CCC3(CC2)OCCO3)cc(C#N)n1C | 5.64 |
| CC(C)N(C(=O)Cn1cnc(C#N)n1)C(C)C | 7.5 |
| Nc1ccc(N2CCC2=O)cc1 | 16.5 |
| O=C1OCCC1Sc1nncs1 (centres unmarked) | 10.2 |
| C=CC(=O)Nc1cc(C2CC2)no1 | 2.71 |
| O=C(CCl)Nc1ccc(N2CCCC2=O)cc1 | 9.28 |
| C=CC(=O)N1Cc2cccc(OC)c2C1 | 4.99 |
| C=CC(=O)N1CCCC1c1ccccn1 (centres unmarked) | 14.3 |

| Compound | Inhibition % [%] |
| --- | --- |
| Cc1ccc(S(=O)(=O)n2nc(C)c(C)c2C)cc1 | 3.34 |
| N#Cc1cc(F)c(N2CCCC(C3OCCO3)C2)c(F)c1 (centres unmarked) | 8.98 |
| N#Cc1cnc(Oc2ccccc2)cn1 | 11.6 |
| Cc1c(NC(=O)CCl)cccc1[N+](=O)[O-] | 8.38 |
| C=CC(=O)NC1(Cc2cccc(F)c2)CCOCC1 | 11.9 |
| C=CC(=O)N1CCCC2(CCOCC2)C1 | 14.9 |
| C=CC(=O)Nc1cccc(F)c1 | 7.3 |
| C=CC(=O)N1CCC(c2ccco2)C1 (centres unmarked) | 6.85 |
| Cc1cccnc1S | 12.6 |
| O=C(CCl)Nc1nc2c(s1)CCC2 | 1.27 |
| C=CC(=O)N(C)C1CCN(S(C)(=O)=O)C1 (centres unmarked) | 1.26 |
| COCC(C)CN(C)c1nc2ccccn2c1C#N (centres unmarked) | 4.52 |
| CC1(C)Cc2cc(C=C(C#N)C(=O)O)ccc2O1 | 14.7 |
| N#Cc1ccc(N2C[C@H](F)C[C@H]2C(N)=O)cn1 | 2.16 |
| NCC1CCCN1C(=O)C=Cc1ccc(Cl)s1 (centres unmarked) | -0.809 |
| C=CC(=O)NC(CO)C1CCCO1 (centres unmarked) | 6.87 |
| COc1ccc(N2CCN(C(=O)CCl)CC2)cc1 | 28.8 |
| Cc1ccc(NC(=O)CCl)cc1C | 34.8 |
| O=C(CCl)N(Cc1ccco1)c1ccccc1 | 17.8 |
| C=CC(=O)N[C@H]1C[C@H](OC)C1 | 5.99 |
| Cc1nc(C=CC(=O)N2CCCCCC2)cs1 | 4.8 |

| Compound | Inhibition % [%] |
| --- | --- |
| C=CC(=O)N1CCCC(c2nc(C)c(C)s2)C1 (centres unmarked) | 6.18 |
| C=CC(=O)N1CC(=O)N(C2CC2)C1 | 2.52 |
| Cc1c(B2OC(C)(C)C(C)(C)O2)nnn1C | 9.99 |
| C=CC(=O)N1CCC(C)(C2CC2)CC1 | 8.76 |
| N#CC(=Cc1ccc(-c2ccccc2)cc1)C(N)=O | 6.12 |
| C=CC(=O)N1CC2(CCOCC2)CC1C (centres unmarked) | 15.7 |
| CNc1nccnc1C#N | 3.27 |
| N#CC(=Cc1cccc(-c2ccncc2)c1)C(=O)O | 1.36 |
| C=CC(=O)N1CCC(CCC#N)CC1 | 8.36 |
| C=CC(=O)N1CCCN(CC2CCCO2)CC1 (centres unmarked) | 13.1 |
| CCOc1ccc2ccccc2c1C=C(C#N)C(N)=O | 5.94 |
| CN(C)C(=O)Sc1ccc2c(c1)CCCC2=O | 4.76 |
| CC(C)Cc1nc(C#N)c(NCc2ccncc2)o1 | 6.94 |
| COC(=O)c1sccc1NC(=O)CCl | 3.83 |
| O=C(CCl)NCc1ccco1 | 10.2 |
| C=CC(=O)Nc1ccc(N(C)C)cc1 | 15.3 |
| CN(CCOc1ccccc1F)C(=O)CCl | 94.1 |
| CNC(=O)c1ccc(B2OC(C)(C)C(C)(C)O2)cc1C | 1.99 |
| C=CC(=O)N1CCCC(CC#N)C1 (centres unmarked) | 5.07 |
| COC(=O)c1cccc(S(=O)(=O)F)n1 | 7.02 |
